# Reference: PubChem BioAssay AID463173 (ICCB-Longwood Screening Facility, Harvard Medical School, 2010)
# Among all 52,000 compounds or so, about 1,700 (3.3%) were called active. No stated cut-off is given here; in the data, active means survival mostly below about 52% (no sharp cut-off); inactive means mostly above about 56%. This is one part of the list.
# Tested on: Wild type
# Assay: growth inhibition of S. aureus wild type versus tarO mutant, primary screen, teichoic acid synthesis inhibitors, RN4220, OD600 (AID 463173)
# Conditions: S. aureus RN4220 wild type/DeltatarO growth, OD600, 18 h, stronger effect = lower value, screened at 18.75 µg/mL (by protocol)
row,SMILES,survival
1,CCCOc1cccc(C2c3c(-c4ccccc4O)n[nH]c3C(=O)N2Cc2ccco2)c1 (configuration not stated),active: 11%
2,CCS(=O)(=O)N1CCc2cc(C(=O)Nc3cccc(C(C)=O)c3)ccc21,inactive: 86%
3,CCCCN(CC)C(=O)CCNS(=O)(=O)c1ccc2c(c1)c(=O)n(C)c(=O)n2C,inactive: 84%
4,CC(C)CCNc1ncnc2c1nnn2Cc1ccccc1,inactive: 111%
5,CCCNC(=O)Cn1c(=O)c2cccn2c2cccnc21,inactive: 89%
6,CCCNC(=O)C1Cc2cc(S(=O)(=O)N3CCCCCC3)ccc2N1C(C)=O (configuration not stated),inactive: 71%
7,CCCn1cnc2cc(NCc3ccccc3OCC)ccc21,inactive: 61%
8,CCn1c(C(=O)NCc2ccccc2Br)cc2oc3ccccc3c21,inactive: 36%
9,COC(=O)c1ccc(C(=O)OC)c(NC(=O)c2cc3nc(-c4ccc(C)cc4)cc(C(F)(F)F)n3n2)c1,inactive: 68%
10,COCCCNC(=O)c1sc2nc(C)c(C(=O)Nc3ccc(C)cc3C)c(-c3ccccc3Cl)c2c1N,inactive: 74%
11,CCc1ccc2oc(-c3ccc(NC(=O)c4cc5ccccc5o4)cc3)nc2c1,inactive: 76%
12,CCCNC(=O)CCCN1C(=O)CCn2nc(-c3cccn3C)cc21,inactive: 71%
13,O=C(O)CCCn1c(=O)oc2ccccc21,inactive: 99%
14,CCc1cc(=O)oc2c(C)c3c(cc12)CN(CCc1ccccc1OC)CO3,inactive: 85%
15,COc1ccc(C(=O)NCc2ccc3c(c2)CCN3C(=O)c2ccccc2)cc1,inactive: 82%
16,O=C(CCSCc1cnn(-c2ccccc2)c1-n1cccc1)NCc1ccccc1Cl,inactive: 77%
17,Cc1cc(C)cc(Nc2cc(C(=O)NCCCN(C)C3CCCCC3)c3ccccc3n2)c1,active: 26%
18,Cc1ccc(Cl)cc1N1CCN(C(=O)c2ccc(CS(=O)c3ccccc3)o2)CC1 (configuration not stated),inactive: 134%
19,COc1ccc(NS(=O)(=O)c2ccc(-c3cnc(C4CC4)o3)cc2)cc1Cl,inactive: 146%

row,SMILES,survival
1,COCCNC(=O)c1nn(-c2ccc(C)cc2)c(=O)n(C)c1=O,inactive: 83%
2,Cc1ccc(C2C3=C(CCCC3=O)N(C)C3=C2C(=O)CCC3)cc1,inactive: 113%
3,COc1ccc(C(CNC(=O)c2oc3cc(C)c(Cl)cc3c2C)N2CCCCC2)cc1 (configuration not stated),inactive: 87%
4,CC1CCN(S(=O)(=O)c2ccc3nc(NCc4ccccc4)ccc3c2)CC1,inactive: 131%
5,OC1COCc2nc3ccccc3n2C1 (configuration not stated),inactive: 106%
6,COCCNC(=O)CCc1c(C)n(C)c2cc(-c3cc(OC)c(OC)c(OC)c3)nn2c1=O,inactive: 19%
7,COC(=O)c1scc(-c2ccc(C)cc2)c1S(=O)(=O)N1CCN(c2ccc(C)cc2C)CC1,inactive: 87%
8,O=C(Cn1nc(-c2ccc(Cl)cc2)c2ccccc2c1=O)Nc1cccc(C(F)(F)F)c1,inactive: 71%
9,Cn1c(=O)c(=O)n(C)c2cc(C(=O)NCc3ccccc3Cl)ccc21,inactive: 74%
10,Cn1c(SCc2cc(=O)c3cc(Cl)ccc3[nH]2)nnc1-c1ccccc1,inactive: 126%
11,O=C(Nc1sc2c(c1C(=O)c1ccccc1)CCCC2)c1ccco1,inactive: 102%
12,COc1cccc(Nc2nc3ccccc3c3nncn23)c1,inactive: 84%
13,Cc1ccc2c(c1)N(CC(=O)N1CCCC1)C(=O)C(C)O2 (configuration not stated),inactive: 100%
14,CCCCC(=O)Nc1ccc(OCc2cc(=O)n3c(C)csc3n2)cc1,inactive: 87%
15,O=C(NCc1ccccc1Cl)c1c2c(nc3ccccc13)C(=O)N(C1CCCCC1)C2,inactive: 79%
16,COC(=O)c1oc2ccc(Cl)cc2c1C,inactive: 108%
17,CCN(CC)c1ccc(C2C(C(=O)Nc3ccccc3C)=C(C)Nc3ncnn32)cc1 (configuration not stated),inactive: 124%
18,COC(=O)CCCCCn1c(-c2ccccc2)cn2c3c(=O)n(C)c(=O)n(C)c3nc12,inactive: 160%
19,Cc1cc2c(cc1NC(=O)c1ccccc1Cl)n(C)c(=O)c(=O)n2C,inactive: 55%

row,SMILES,survival
1,Cc1cccc(CCn2c(=O)c3ccccc3n(CC(=O)Nc3ccccc3F)c2=O)c1,inactive: 71%
2,COc1ccc(OC)c(C(=O)CSc2ncc3c(n2)-c2ccccc2N(Cc2ccccc2C)S3(=O)=O)c1,inactive: 47%
3,Cc1ccn2c(=O)cc(CSc3nnc(C)s3)nc2c1,inactive: 85%
4,CCN(Cc1ccccc1)Cc1c(O)ccc2c(=O)c(-c3ccc(Cl)cc3)c(C(F)(F)F)oc12,inactive: 90%
5,Cc1ccc(C)c(N2CCN(CCCNC(=O)c3cnn(-c4ccccc4)c3C3CCN(C(=O)OC(C)(C)C)CC3)CC2)c1,inactive: 126%
6,CS(=O)(=O)N(CC(=O)NCc1ccncc1)c1ccccc1,inactive: 108%
7,COc1ccccc1Nc1c2c(nc3ccc(NC(=O)c4ccccc4F)cc13)CCCC2,inactive: 83%
8,COCCN=Cc1c(NCCOC)nc2ccccn2c1=O,inactive: 90%
9,Cc1cccc(-c2noc(-c3ccccc3OCC(=O)Nc3ccccc3[N+](=O)[O-])n2)c1,inactive: 109%
10,Cc1ccn2cc(CNC(=O)c3cccc(C(F)(F)F)c3)nc2c1,inactive: 86%
11,CCN(CC)CCCNC(=O)c1cn(CC(C)C)c(=O)c2c1c1ccccc1n2C,inactive: 123%
12,Cc1ccc2nc(-c3ccsc3)c(Nc3ccc(Cl)cc3)n2c1,inactive: 105%
13,COc1ccc(-c2nnc(SCC(=O)N3CCc4ccccc43)o2)cc1OC,inactive: 87%
14,COc1ccc(-c2nc3scc(CCNS(=O)(=O)c4ccc(Oc5ccccc5)cc4)n3n2)cc1,inactive: 55%
15,CC(=O)c1cccc(NC(=O)[C@H]2O[C@@H]3OC(C)(C)O[C@@H]3[C@H]3OC(C)(C)O[C@H]32)c1,inactive: 120%
16,COc1ccc(OCC(=O)N(Cc2sccc2C)C2CCS(=O)(=O)C2)cc1 (configuration not stated),inactive: 87%
17,CCOC(=O)c1ccc(NC(=O)C(C)Sc2nc(=O)cc(N)n2CCc2ccccc2)cc1 (configuration not stated),inactive: 72%
18,Cc1ccc(C)c(N2C(=O)N(Cc3cccc(C(F)(F)F)c3)c3ccccc3S2(=O)=O)c1,inactive: 63%
19,CCn1c2c(c(=O)n3ncc(C(=O)N4CCN(c5ccc(C(C)=O)cc5)CC4)c13)CN(Cc1ccc(OC)cc1)CC2,inactive: 131%
